Data as given in PubChem BioAssay AID485344 (National Center for Advancing Translational Sciences (NCATS), 2010).
The whole screen tested about 340,000 compounds, of which about 6,900 (2%) were called active. Rule as the data show it: active = inhibition above about 30%; inactive = below that, where a call was filed. The entries are a selection whose mix differs from that of the whole data set. Where no call is shown, the source filed none.

Target: D(2) dopamine receptor (Homo sapiens) (UniProt P14416)
Assay: HTS Assay for Allosteric Antagonists of the Human D2 Dopamine Receptor: Primary Screen for Antagonists; also: 0% is about no effect
Conditions: HEK293 TREx D2 cells, calcium flux, dopamine EC80; at 10 µM; stronger effect = higher value
In short: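 Calcium flux kinetic readout in an inducible HEK293 TREx D2 line plated overnight at 30 C. After 180 s compound exposure, an EC80 dopamine challenge follows with another 180 s kinetic read to detect antagonism.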

Sequence of UniProt P14416 (P14416 whole entry, looked up): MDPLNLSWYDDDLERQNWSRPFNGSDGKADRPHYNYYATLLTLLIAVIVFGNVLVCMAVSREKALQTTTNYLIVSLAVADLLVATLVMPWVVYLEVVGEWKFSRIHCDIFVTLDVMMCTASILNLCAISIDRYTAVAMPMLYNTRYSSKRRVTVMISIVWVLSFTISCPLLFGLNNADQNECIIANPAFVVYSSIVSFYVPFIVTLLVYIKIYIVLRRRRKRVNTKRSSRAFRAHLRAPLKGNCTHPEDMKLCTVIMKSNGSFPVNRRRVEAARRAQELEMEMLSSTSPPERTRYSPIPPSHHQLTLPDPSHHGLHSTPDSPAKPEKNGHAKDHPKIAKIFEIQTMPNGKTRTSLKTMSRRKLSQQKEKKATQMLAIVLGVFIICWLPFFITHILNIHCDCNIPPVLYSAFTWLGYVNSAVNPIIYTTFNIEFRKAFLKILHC

Row | SMILES | inhibition
1 | O=C(CSc1nnc(C2CC2)n1Cc1ccccc1)c1ccc(S(=O)(=O)N2CCOCC2)cc1 | active: 46.5%
2 | O=C(Nc1cccc(Cl)c1)N1Cc2ccccc2Oc2ncccc21 | -7.26%
3 | CCc1ccc(NC(=O)CN2C(=O)C(=O)c3ccccc32)cc1 | 7.02%
4 | COc1ccc(S(=O)(=O)Nc2ccc(O)c(Sc3nc4ccccc4s3)c2)cc1 | 22.7%
5 | CCCC(=O)NC1CC(=O)N(c2ccc3c(c2)OCCO3)C1 (stereo unspecified) | -1.16%
6 | CC(C)c1ccc(NC(=O)c2cn(C3CCCC3)c(=O)c3c2c2ccccc2n3C)cc1 | 6.55%
7 | CCCOc1ccc(NC(=O)CC2C(=O)N(c3cccc(OC)c3)C(=O)N2CCc2ccncc2)cc1 (stereo unspecified) | -2.67%
8 | COc1cccc(NC(=O)CSc2cc(C)c3ccccc3n2)c1 | -3.56%
9 | COc1ccccc1-c1nc(CNC(=O)NC2CCCCC2)c(C)o1 | 2.34%
10 | O=C(Cn1ncc2ccsc2c1=O)N1CCN(c2ccc(Cl)cc2)CC1 | 12.9%
11 | CC1CCCCN1Cc1nc2c(c(=O)n(C)c(=O)n2C)n1Cc1ccc(Br)cc1 (stereo unspecified) | -10.5%
12 | COc1ccc(NC(=O)c2c(-c3ccc(C)cc3)nnc3ccccc23)cc1OC | 2.72%
13 | Cc1ccc2c(Sc3ccc(Cl)cc3)c(C(=O)N3CCCCC3)[nH]c2c1 | -5.96%
14 | Clc1ccccc1OCCN1CCCCC1 | active: 44.3%
15 | O=c1nc(/C=C/c2ccccc2C(F)(F)F)cc(C(F)(F)F)[nH]1 | active: 32.2%
16 | CC(Nc1ccc(-c2nc(-c3cccnc3)no2)cc1[N+](=O)[O-])c1ccccc1 (stereo unspecified) | -1.02%
17 | CCS(=O)(=O)c1ccc(C(=O)N2CCN(c3nc4c(OC)ccc(C)c4s3)CC2)cc1 | -2.88%
18 | O=C(CSc1cn(CCNC(=O)c2ccccc2F)c2ccccc12)Nc1ccc2c(c1)OCCO2 | -10.2%
19 | COCCn1c(C)cc(O)c(C(c2ccccc2)N2CCN(c3ccccc3F)CC2)c1=O (stereo unspecified) | -20.2%
20 | CN1CCN(C2=Cc3ccccc3Sc3cc(F)c(Cl)cc32)CC1 | active: 73.5%
21 | COC(=O)c1cc(-c2ccc(Cl)cc2)c2c(=O)[nH]c(=O)n(C)c2n1 | 4.19%
22 | CCOCCCNC(=O)C1CCN(c2nc3ccc(C)cc3[nH]2)CC1 | -6.18%
23 | COc1ccc(NC(=O)CCc2c(C)nn(-c3ccc(N4CCCC4)nn3)c2C)cc1Cl | 5.15%
24 | Cc1ccc(NC(=O)CCn2cccn2)c(C)c1 | 7.25%

Row | SMILES | inhibition
25 | COc1ccc(N2CCN(C(=O)Cn3cnc4sc(C)c(S(=O)(=O)N5CCCCC5)c4c3=O)CC2)cc1 | -2.37%
26 | Cc1ccc(Cn2c(=O)n(CCc3ccccc3)c(=O)c3sc4ccccc4c32)cc1 | -8.87%
27 | O=C(CSc1nc2c([nH]c3ccccc32)c(=O)n1-c1ccccc1)Nc1cccc(C(F)(F)F)c1 | 11.1%
28 | Cc1ccc(N(C)C(=O)Cn2ncc3c([nH]c4ccccc43)c2=O)cc1C | 6.72%
29 | O=C(NC1CCCCC1)c1ccc(CSc2nc3ccncc3n2Cc2cccc(F)c2)cc1 | -4.82%
30 | CCc1ccc(CNC(=O)c2ccc3c(c2)c(C)c(C)n3Cc2ccccc2)cc1 | 8.07%
31 | CCOC(=O)N1CCc2c(sc(NCc3cc(OC)ccc3OC)c2C(=O)Nc2cc(OC)ccc2OC)C1 | 1.41%
32 | CCOCCCNC(=O)C(c1ccc(C)cc1)N(Cc1ccc2c(c1)OCO2)C(=O)c1ccccc1O (stereo unspecified) | -25.6%
33 | CCc1nn(CC(=O)N2CCN(c3cccc(C)c3)C(C)C2)c(=O)c2cc3sccc3n12 (stereo unspecified) | 1.84%
34 | COc1ccccc1C(=O)NC1(C(F)(F)F)NC(=O)N(CCc2ccccc2)C1=O (stereo unspecified) | 1.06%
35 | Cc1ccc(NC(=O)n2ncc3c(C)cccc32)c(C)c1 | 20.4%
36 | O=C(CSc1nnc2scc(-c3ccc(Cl)cc3)n12)Nc1ccc(F)cc1 | 8.36%
37 | COc1ccc(OC)c(N(C(=O)c2snc(C(N)=O)c2N)C(C(=O)NCc2ccccc2)c2ccc(O)cc2)c1 (stereo unspecified) | active: 43.4%
38 | Cc1cc(C)c(NC(=O)CSc2nc(=O)n(Cc3ccncc3)c3c2CCC3)c(C)c1 | -1.7%
39 | Cc1ccc(Nc2c(-c3cccnc3)nc3ccc(C)cn23)cc1 | 13.1%
40 | COc1cccc(C2=CC(c3ccccc3F)n3ncc(C(=O)Nc4ccc(F)cc4)c3N2)c1 (stereo unspecified) | 19%
41 | O=C(NCCCN1CCCC1=O)Nc1ccc([N+](=O)[O-])cc1 | active: 34.8%
42 | COc1cc(C(C)=O)ccc1OCC(O)CN1CCN(c2cc(C)cc(C)c2)CC1 (stereo unspecified) | active: 57.9%
43 | CCOC(=O)Cn1c(C)c(Br)c(=O)c2cccc(C)c21 | active: 31.2%
44 | CCCN(C(=O)c1cc2c(=O)oc3ccc(C)cc3c2s1)c1ccc(OCC)cc1 | 14.6%
45 | CCCCN1C(=O)C(O)(CC(=O)c2ccc(CC)cc2)c2cc(Br)ccc21 (stereo unspecified) | -5.38%
46 | COc1cccc(CNC(=O)Cn2nc(C)n3c(cc4cc(C)ccc43)c2=O)c1OC | 1.3%
47 | CCSc1nc(-c2cccc(Cl)c2)nc2c1Cc1c(CO)cnc(C)c1O2 | -5.31%
48 | COc1cccc(-c2nc(Cn3c(=O)cc(C)c4c(C)nn(-c5ccccc5)c43)c(C)o2)c1OC | 0.923%

Row | SMILES | inhibition
49 | CCOc1ccc2nc(N(Cc3cccnc3)C(=O)c3cccs3)sc2c1 | 4.85%
50 | Cc1c(Cl)ccc2sc(N3CCN(C(=O)CCS(=O)(=O)c4ccc(F)cc4)CC3)nc12 | 0.819%
51 | COc1ccc(-c2nc3ccccc3n2Cc2ccccc2)cc1 | -5.28%
52 | CCCCCOc1ccc(NC(=O)Cn2c(-c3nonc3N)nc3ccccc32)cc1 | 21.8%
53 | CC1=C(C(=O)Nc2ccccc2)C(c2ccccn2)n2nc(SCc3ccccc3)nc2N1 (stereo unspecified) | 8.72%
54 | Cc1ccc2c(c1)C(c1ccccc1)N(C(=O)COc1ccc(Cl)cc1Cl)CC(=O)N2 (stereo unspecified) | -3.44%
55 | COC(=O)c1ccccc1NS(=O)(=O)c1cc2c3c(c1)CC(=O)N3CCC2 | 8.15%
56 | CCN(CC)S(=O)(=O)c1ccc2c(c1)N(CC(=O)Nc1ccc(Cl)cc1)C(=O)C1CCCN21 (stereo unspecified) | 3.73%
57 | Oc1oc(-c2ccccc2)nc1C=NCc1ccncc1 | active: 30.7%
58 | CC(C)(C)c1ccc(C(=O)NCC(c2ccco2)S(=O)(=O)c2ccccc2)cc1 (stereo unspecified) | -13%
59 | COc1ccccc1CNC(=O)C(=O)NCC(c1ccco1)S(=O)(=O)c1ccc(F)cc1 (stereo unspecified) | -11.4%
60 | COc1ccc(C)c2sc(NC(=O)c3ccc(S(=O)(=O)N4CCOCC4)cc3)nc12 | -16%
61 | COc1ccc(C(=O)Oc2c(Sc3ccccc3)c(C)nn2-c2ccccc2)c(OC)c1 | -0.473%
62 | COc1cccc(N2CCN(C(=O)c3cnc4c(-c5ccc(F)cc5)c(C)nn4c3C)CC2)c1 | 20.2%
63 | CCOc1ccc(NC(=O)c2cc(-c3ccc(C)c(F)c3)on2)c([N+](=O)[O-])c1 | 16.7%
64 | Cc1cccc(C)c1OCCn1c(CCNC(=O)C2CCCCC2)nc2ccccc21 | 6.5%
65 | CCc1c(O)nc(SCC(=O)N(CC)CC)[nH]c1=O | active: 34.1%
66 | CC(C)OC(=O)c1c(NC(=O)c2cccc(C(F)(F)F)c2)sc2c1CCCC2 | -4.94%
67 | O=C1CC(c2ccccc2)Sc2ccccc2N1Cc1ccccc1F (stereo unspecified) | 10.8%
68 | COc1ccc(NC(=O)Cn2ccn(-c3ccc(F)c(F)c3)c(=O)c2=O)cc1Cl | -15.4%
69 | COc1ccccc1NC(=O)NC1CCS(=O)(=O)C1 (stereo unspecified) | active: 39.2%
70 | COc1ccc(CNC(=O)CCC2N=C3c4ccccc4N=C(SCC(=O)NCCc4ccc(OC)c(OC)c4)N3C2=O)cc1 (stereo unspecified) | -2.39%
71 | COc1ccc(CNC(=O)c2cc3c(=O)n(Cc4ccco4)ccc3nc2C)c(OC)c1 | 1.84%
72 | CC(=O)N1CCCc2cc(S(=O)(=O)N(C)CC(=O)Nc3ccc(C(C)C)cc3)ccc21 | 14.9%

Row | SMILES | inhibition
73 | CC(C)c1ccc(OCC(=O)Nc2ccc(S(=O)(=O)Nc3ncccn3)cc2)cc1 | 1.54%
74 | O=C(O)CCSc1nc(C(F)(F)F)cc(=O)n1-c1ccccc1 | active: 32.7%
75 | Cn1cc(-c2cc3n(n2)CCC(=O)N3CCCC(=O)Nc2ccc(Cl)cc2)c2ccccc21 | 19.3%
76 | Cc1ccccc1Cn1c2ccccc2c2cnn(CC(=O)NCc3cccc(Cl)c3)c(=O)c21 | 1.22%
77 | CCN(CC)c1ccc(NC(=O)COCc2cc(-c3ccc4c(c3)OCO4)on2)c(C)c1 | -5.55%
78 | Cc1ccc(N2CCN(C(=O)c3c(C)oc4ncn(C)c(=O)c34)CC2)c(C)c1 | -4.35%
79 | Cc1nc(-n2nc(C)c(Cc3ccc(Cl)cc3)c2C)sc1C(=O)N1CCC(C)CC1 | 14.1%
80 | Cc1ccc(NC(=O)CSc2nc3c(oc4ccccc43)c(=O)n2Cc2ccco2)cc1F | 2.07%
81 | COc1ccc(OC)c(CCNc2ncnc3onc(-c4ccc(Cl)cc4)c23)c1 | -6.43%
82 | Cc1cccc(CNC(=O)c2cnc3c(-c4cccc(C)c4)c(C)nn3c2C)c1 | -13.1%
83 | CCCCC(=O)N1c2ccccc2C(C)(c2ccccc2)CC1(C)C (stereo unspecified) | 22.8%
84 | CCc1ccc(S(=O)(=O)NCCc2cn3ccsc3n2)cc1 | -25.7%
85 | CC(=O)N1CCCc2cc(S(=O)(=O)N(C)CC(=O)Nc3cccc(Cl)c3C)ccc21 | 16.1%
86 | Cn1c(=O)c2cc(S(=O)(=O)NC(Cc3ccccc3)C(=O)Nc3ccc(F)cc3)ccc2n(C)c1=O (stereo unspecified) | 1.99%
87 | O=C(c1ccccc1Cl)n1nc(-c2ccco2)nc1NCc1cccs1 | 8.76%
88 | CCOC(=O)CN(C(=O)CSc1nnc2c(n1)[nH]c1ccc(OC)cc12)c1ccc(F)cc1 | active: 79.7%
89 | CCOc1ccccc1NC(=O)N1CCN(S(=O)(=O)c2ccc3c(ccn3C)c2)CC1 | 2.07%
90 | CC(C)c1ccccc1NC(=O)CSc1nnc(COc2ccccc2Cl)o1 | 0.498%
91 | CCN(c1ccc(C)cc1)S(=O)(=O)c1nnc(NC(=O)c2cccs2)s1 | 0.292%
92 | Cc1ccc(-c2ccc(CCC(=O)O)n2-c2ccc(C(C)C)cc2)cc1 | 19.7%
93 | COc1ccccc1CNC(=O)Cn1ncc2c(C)n(Cc3ccccc3Cl)c(C)c2c1=O | -2.95%
94 | Nc1c(-c2nc(-c3ccccc3)no2)nnn1CC(=O)Nc1ccccc1 | 6.27%
95 | CCN(CC)CCNC(=O)c1cc2c(=O)[nH]c3ccc(C)cc3c2s1 | 2.55%
96 | Clc1ccc(OCCOCCN2CCCCC2)c(Br)c1 | active: 76.9%
